The chains are these.
B1: LINE1-full (parent)
chain: UACGUAGGUGGUUUUCCCCUGAUAGUGCUAAGGGGGCCUGGAAGUUUGGACUGGGCAGAGCUCAACACAGCGUGGCAAAGUGGCUGUGGCUAGACUGCCUCUCUGGAUUCCUCGUCACUCAGCAGGGCAUCUCUGAGAGAAAUGCC

Read counts are not given, so values of variants with three or more changes are uncertain.

The variants in this series derive from B1. Description: self-cleavage, relative activity (ratio to wild type); higher = more cleavage; in vitro, sequencing; the parent is a self-cleaving ribozyme.
As to U5A U81A U115C, the self-cleavage was determined as 1.88. With C3U U13C U62C A121G A124U A141G the figure was 0. As for A2G U46C A57G, the figure is 0; as for U5C A69G A78G U112C, 0; as for U5A G27A A142G, 0.75. With U5A U46A U119C the figure was 1.11. Turning to G4A U62C A65G U132C A138G, the self-cleavage came out at 0.28.

Take U5A U47A A50G: the self-cleavage came to 0.46. With U5C A6G A129G the figure was 0.82; with U5A A124U A136G, 1.27. In the case of U5A U47C U130C A140G C145U, the self-cleavage was 0.75. With U5A A31U A59U A124U the figure was 0.69; with U5C A57G G88A, 0.11. With U5A G34U G36C U47C, the self-cleavage turned out to be 0.81. As for U5A U26C G34A A142G, the figure is 1.22; as for G4U C68U A107G, 0.32; as for C3U U52A A65G, 0.12.

In the case of A2G U104C U130A A138U, the self-cleavage came to 1.72.

On to U5C A24U U62C U96C A140G G144A, for which the self-cleavage stood at 0. With A2U U12C A117U the figure was 0.6; with U5A G34A U130C A138U, 0.81; with C3U U29C U87C, 0. With A2U U13C A24G C37U A141G U143C the figure was 1.03.

For C3A U45C A69G A77G, the self-cleavage is 0. As for A2U U73G U81C, the figure is 0.9; as for G4A A30U U52A, 1.29. In the case of A2U A67U U130C C145G, the self-cleavage worked out at 0.29. With U5C C28U U47C the figure was 0.49; with U5A A78G G105A U115C, 1.52; with A2G U73A A121G A138G A141G, 1.15.

In the case of G4C U14C U100C A138G, the self-cleavage was determined as 1.15. Take C3A U13C U15C A43G: the self-cleavage was found to be 1.1. As for A2G U73C G135A G137A, the figure is 0; as for A2U U62C A77G, 0.25. With G4A A30G U100A U104A the figure was 0.9; with U5C C37U G49A A107G, 0; with C3A G72A U73A A78U U112G, 1.75.

On to A2U U13A U23C U96C A138G, for which the self-cleavage was 0.26. As for U5C A78G A142C, the figure is 1.48; as for G4C U39A U52C, 1.38; as for C3U A42G A124C, 0.69. As for G4A G10U C95U A129G, the figure is 0.14; as for U5A U20G G72A U91C U115C, 0.21; as for U5A G35C U102C U115C, 2.09. With G4U A69U U109A the figure was 0.07. For U5A U12C U39A A77G, the self-cleavage was determined as 1.86.

As to U5C A6U U15C G72A, the self-cleavage was 0.88. Regarding C3U U9A U29A A117G, the self-cleavage amounted to 1.15. With C3U A31U A67G the figure was 0.59.

Consider A2G U96C A124C, for which the self-cleavage came to 0. With A2G U108C A136G the figure was 2.3; with U5A U23C U29C G58U A121G A129G A136U, 1.21. With A2G U47A A117G the figure was 1.41.

For the variant A2G U100C C113A A136G A141C, the self-cleavage amounted to 1.91.

As to A2G U52C G53A C76U U104C, the self-cleavage turned out to be 0.66. As for A2U G82A A94G, the figure is 0.16; as for C3A U20A U29C U119C C128G, 1.23. Take U5C C66U A117G A140G: the self-cleavage is 0.23. With C3U A69U U73A U87A the figure was 0; with U5A A42G U134C, 0.88.

For U5C A59G A140G, the self-cleavage amounted to 0.

For the variant C3U U5C U15C U47A G82A U115A A129G, the self-cleavage amounted to 1.34.

For the variant U5A U26A A141G, the self-cleavage is 0.17.

With U5C A6U G41A U143A, the self-cleavage stood at 0.84.

On to U5C A6G A136G, for which the self-cleavage was 1.36. As for A2G U87A U100A, the figure is 0.07; as for U5C A65G A142G, 0.11. With C3A U23C A117U the figure was 1.2.

For the variant A2G U87C U115C, the self-cleavage was 0. As for G4A U52A A69G A94G, the figure is 0; as for A2U A50G G137A A141G, 0.34; as for U5C A67G G127U A142G, 0.24. In the case of C3U A30G G33U, the self-cleavage came to 1.27. As for U5A A129U A136U, the figure is 0; as for U5C A92G U100C, 0. With C3U U81C A121U the figure was 0.29. As for A2U A42G U102C A117U, the figure is 1.25; as for G4A U52C A65G A78G, 0. On to G4A G34U C123U A138G, for which the self-cleavage amounted to 1.06. As for C3U G36C A65G G75A A78G, the figure is 0.11; as for G4A A43G U62C, 0.1; as for A2G U47A U102C, 1.25.

With U5A G21A A142G, the self-cleavage is 1.46. As to C3G A64G A136G, the self-cleavage was found to be 0.35. As for U5C A22G U85C A140C, the figure is 0; as for C3U A124G U134C A140G A142G, 0.68; as for G4C A78G C113U, 0.05. As for A2G U115C A142G, the figure is 1.15. As for G4A U87A C128A, the figure is 0.11; as for A2U U52A A64U U96C A142G, 0.11; as for C3U U112A G127C, 0.71. Regarding U5A A31G U62A A121G, the self-cleavage is 0.18. Turning to U5C C17U U112C, the self-cleavage is 0.84. As for U5A U109A A129U, the self-cleavage is 1.15.

For the variant U5A A30U U73C, the self-cleavage is 1.21. With A2U A69G A141G the figure was 0.42; with G4U G58U C101A A141G, 0.14; with U5C C19U G72U A124G, 0.43.

For the variant U5C C61A G74A A124G U134C, the self-cleavage is 0.04. With U5A U73A A124G A140G the figure was 0.12; with A2U U13C U39G U109C, 1.06. With G4C A43G U115A the figure was 1.23; with C3U A67U G89A A129U, 0.08; with U5A C19A U39A G49A A50G C90U A138G, 0.1. With U5C C28U U109A U115C the figure was 0.79. Regarding G4A U9C U14C A140C, the self-cleavage stood at 0.96. With G4A U12C U52C G89U C110U the figure was 0.14; with C3U U52C U62C A78U A140U G144A, 0.21.

Take G4A U23A A78G: the self-cleavage amounted to 0.91. With A2G U46A U62A the figure was 0.15; with G4A G32U G34A A43U G82A U115A C128G A140G, 0.44; with C3U G11A G55A A117G, 0.62. As for A2U C19A C38A A50G A69G A138G, the figure is 0.22; as for A2G U132C U134C, 0; as for U5A U52A C101A, 0.93.

On to U5A U12C A79C U81C G82A, for which the self-cleavage came to 0.48.

Consider U5C A24G U26C U91C, for which the self-cleavage is 2.3.

In the case of A2G U47A U119A, the self-cleavage was found to be 0.96.

Regarding C3U A78U A129G, the self-cleavage was 1.43.

Consider U5C A6G A107G, for which the self-cleavage came to 2.12. As for A2U U81A A107U U112C A121G, the figure is 1.15. As for U5C A57G U85A, the figure is 0.14.

Take C3A G25A U134C: the self-cleavage was 0.77. With G4A A22C C110A A140G the figure was 1.47; with U5A A59U C90U, 0.01; with U5A U81G U96C C133A, 0.07. Take U5A U12C U15C A77G: the self-cleavage is 0.43. For the variant C3U U104A U134C A136G, the self-cleavage is 1.25. With U5C A6U U81A the figure was 1.51. As for U5C A65G A141G, the figure is 0. With U5C C66U U73C C133A the figure was 0.11; with G4A U13C U45C A129G, 1.25; with A2G U62A U104A, 0.16. With A2G U85C U132C, the self-cleavage was 0.

Consider C3U G36A A43U, for which the self-cleavage turned out to be 0.34. With U5A U12C A136G the figure was 0.66; with C3U G58A U115A, 0.29.

In the case of G4U A92U U102C, the self-cleavage was 0.72. With U5A A65U A136G the figure was 0.42. With U5C A69C G74U the figure was 0.04; with A2U U45A U62C, 0; with C3U U119C C145A, 1.7.

On to A2G U81C A136G, for which the self-cleavage amounted to 1.02. As for U5C C68A U102G U108C U119C, the figure is 0; as for C3U U39C U91C U100C, 0; as for G4A U14A C37G A77U U119C A121U G144U, 0.57. With A2U A43G A121U the figure was 0.79; with G4A C113A A129U, 1.16.

In the case of A2G U46C U62C A69G, the self-cleavage came to 0.

On to A2G U104A C113U U134C, for which the self-cleavage turned out to be 1.13. With A2G U73C A140G the figure was 0; with U5C A136G A140G, 2.51; with A2G U46C G58U U132C, 0.17. C3U A57U A140G: the self-cleavage turned out to be 0.29.

With C3A U14C U47C, the self-cleavage turned out to be 1.02.

For the variant A2G U62A U73A U132C, the self-cleavage was 0.18. With U5A U14C A30G U39A A129U U134C the figure was 1.23; with G4A A42G U47C U102C A124U U134A, 1.02; with C3U U91C G122U, 0.61. With U5C C63U C84U U115C the figure was 0.27; with G4C U15A G88U, 0.07. In the case of U5C A64G U87C, the self-cleavage amounted to 0.99.

On to U5C A6U A94U, for which the self-cleavage came to 0.61. Turning to A2G U52A G97C C113U A129G U132A, the self-cleavage is 0.44. With U5A U14A A79G the figure was 2.63; with C3U A79G C113U U134G, 0.55. As for U5A A50G U85A G105A C118A G144A, the figure is 0.07.

Source of the values: the RNAGym collection of RNA variant scans (doi:10.7554/elife.90254).
